Reference: US20230365662A1

Target: HRgpA-6H (Porphyromonas gingivalis)
Assay: SPR; ligand HRgpA-6H, analyte antibody as the table prints

| Binder | Kd | koff | kon |
| --- | --- | --- | --- |
| H8 K222A (antibody) heavy: QVQLQESGPGLVKPSETLSLTCTVSGFSLSIYSVHWIRQPPGKGLEWIGMIWGGGSSDYNSALKSRLTISKDTSKNQVSLKLSSVTAADTAVYYCARNGNFYAMDYWGQGTLVTVSS[human IgG1 constant region with K222A (EU numbers) not shown] light: EIVLTQSPGTLSLSPGERATLSCTASSSVSSSFLHWYQQKPGQAPQLWIYSTSNLASGIPARFSGSGSGTDYTLTISRLEPEDFATYYCHQYHHSPYIYTFGGGTKLEIKRTVAAPSVFIFPPSDEQLKSGTASVVCLLNNFYPREAKVQWKVDNALQSGNSQESVTEQDSKDSTYSLSSTLTLSKADYEKHKVYACEVTHQGLSSPVTKSFNRGEC | 0.57 nM | 3.3e-05 s⁻¹ | 58000 M⁻¹ s⁻¹ |
| H5 K222A (antibody) heavy: QVQLQESGPGLVKPSETLSLTCTVSGFSLSIYSVHWIRQPPGKGLEWIGMIWGGGSSDYNSALKSRLTISKDTSKNQVSLKLSSVTAADTAVYYCARNGNFYAMDYWGQGTLVTVSS[human IgG1 constant region with K222A (EU numbers) not shown] light: EIVLTQSPGTLSLSPGERATLSCTASSSVSSSFLHWYQQKPGQAPRLLIYSTSNLASGIPDRFSGSGSGTDFTLTISRLEPEDFAVYYCHQYHHSPYIYTFGGGTKLEIKRTVAAPSVFIFPPSDEQLKSGTASVVCLLNNFYPREAKVQWKVDNALQSGNSQESVTEQDSKDSTYSLSSTLTLSKADYEKHKVYACEVTHQGLSSPVTKSFNRGEC | 0.068 nM | 3.42e-06 s⁻¹ | 50200 M⁻¹ s⁻¹ |
| H14 K222A (antibody) heavy: QVQLQESGPGLVKPSETLSLTCTVSGFSLSIYSVHWIRQPPGKGLEWLGMIWGGGSSDYNSALKSRLTISKDTSKNQVSLKLSSVTAADTAMYYCARNGNFYAMDYWGQGTLVTVSS[human IgG1 constant region with K222A (EU numbers) not shown] light: EIVLTQSPGTLSLSPGERATLSCTASSSVSSSFLHWYQQKPGQAPQLWIYSTSNLASGIPDRFSGSGSGTDYTLTISRLEPEDFAVYYCHQYHHSPYIYTFGGGTKLEIKRTVAAPSVFIFPPSDEQLKSGTASVVCLLNNFYPREAKVQWKVDNALQSGNSQESVTEQDSKDSTYSLSSTLTLSKADYEKHKVYACEVTHQGLSSPVTKSFNRGEC | 1.3 nM | 6.53e-05 s⁻¹ | 50100 M⁻¹ s⁻¹ |
| H7 K222A (antibody) heavy: QVQLQESGPGLVKPSETLSLTCTVSGFSLSIYSVHWIRQPPGKGLEWIGMIWGGGSSDYNSALKSRLTISKDTSKNQVSLKLSSVTAADTAVYYCARNGNFYAMDYWGQGTLVTVSS[human IgG1 constant region with K222A (EU numbers) not shown] light: EIVLTQSPGTLSLSPGERATLSCTASSSVSSSFLHWYQQKPGQAPQLWIYSTSNLASGIPDRFSGSGSGTDYTLTISRLEPEDFATYYCHQYHHSPYIYTFGGGTKLEIKRTVAAPSVFIFPPSDEQLKSGTASVVCLLNNFYPREAKVQWKVDNALQSGNSQESVTEQDSKDSTYSLSSTLTLSKADYEKHKVYACEVTHQGLSSPVTKSFNRGEC | 0.795 nM | 4.36e-05 s⁻¹ | 54800 M⁻¹ s⁻¹ |
